Screen size: about 410,000 compounds; about 6,400 (1.6%) were called active. The shares of active, inactive and inconclusive entries below differ from those in the screen. Calls follow the shape of the dose curve; as a rule, active = well fitted inhibition curve with a large enough effect; inconclusive = small, poorly fitted or top-dose-only effect; inactive = no such curve, though single readings can be large or run the other way. No potency is given beside an inconclusive call; the fits are too rough.
Target: Glucagon-like peptide 1 receptor (Homo sapiens) (UniProt P43220)
Test: qHTS of GLP-1 Receptor Inverse Agonists (Inhibition Mode); also: nearly all actives have a fitted effect of over 55% in size
Conditions: HEK293 GLP-1R CRE-luciferase, luminescence, 24 h, GLP-1R form is constitutively active; activity change, negative = inhibition: at 38.3 µM (top of the series) unless noted
Summary of the method: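 HEK293 cells stably co-expressing constitutively active GLP-1R and a cAMP-responsive luciferase reporter were seeded in DMEM with 10% Nu serum, given compounds after 12 h, and incubated 24 h at 37 deg C. Luminescence was then read.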
% is scaled to controls: 0 for no effect and ±100 for the full control effect; potency is read from the fitted curve at half-maximal effect; tags tell the direction and shape of the fitted curve.

Sequence of UniProt P43220 (P43220 whole entry, looked up): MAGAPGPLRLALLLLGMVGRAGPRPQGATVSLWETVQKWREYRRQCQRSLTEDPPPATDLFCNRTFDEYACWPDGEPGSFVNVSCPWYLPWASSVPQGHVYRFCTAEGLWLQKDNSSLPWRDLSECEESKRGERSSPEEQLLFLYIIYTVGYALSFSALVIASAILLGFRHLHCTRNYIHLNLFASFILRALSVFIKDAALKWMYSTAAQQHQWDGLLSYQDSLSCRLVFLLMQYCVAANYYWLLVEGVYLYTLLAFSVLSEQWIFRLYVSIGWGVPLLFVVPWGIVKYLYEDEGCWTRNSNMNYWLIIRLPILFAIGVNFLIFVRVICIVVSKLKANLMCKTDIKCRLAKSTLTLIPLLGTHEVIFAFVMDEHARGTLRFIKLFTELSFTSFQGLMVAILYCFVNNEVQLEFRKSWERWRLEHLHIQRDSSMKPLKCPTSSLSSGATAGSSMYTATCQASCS

Q: With CCCCCn1c(=O)[nH]c2cc(C(=O)NCCCN3CCCCC3CC)ccc2c1=O (stereo unspecified) as the compound, how does the Potency read?
A: Its Potency is inconclusive [inhibitor, partial curve].

Q: O=C(CCCCn1c(=O)[nH]c2ccsc2c1=O)N1CCN(c2cccc(C(F)(F)F)c2)CC1 was tested. Which Potency did it give?
A: The Potency was inconclusive [inhibitor, partial curve].

Q: With CCOc1ccc(C(=O)OCCN(CC)CC)cc1 as the compound, how does the Potency read?
A: Its Potency is inconclusive [inhibitor, partial curve, poor fit].

Q: How did the Potency turn out when CCCCCCSc1cccc(-c2nc3cc(C)ccn3c2NC2CCCCC2)c1 was run?
A: The Potency was inconclusive [inhibitor, partial curve, poor fit].

Q: CCCOC(=O)C1=C(C)NC2=C(C(=O)C(C(=O)OC)C(C)C2)C1c1ccc(N(CC)CC)cc1 (stereo unspecified) was tested. Which Potency did it give?
A: The Potency was inconclusive [inhibitor, single point].

Q: CN(Cc1ccc(Cl)cc1)C(c1cc2ccccc2o1)c1nnnn1C(C)(C)C (stereo unspecified) was tested. Which Potency did it give?
A: Its Potency is inconclusive [inhibitor, single point].

Q: Cc1ccc(C)c(N2CCN(C(=O)c3ccc(-c4nc(COc5ccccc5)c(C)o4)cc3)CC2)c1 was tested. Which Potency did it give?
A: The Potency was inconclusive [inhibitor, full curve, poor fit].

Q: Which Potency does the source give for COc1cccc(CNS(=O)(=O)c2ccc3[nH]c4c(c3c2)CCCCC4)c1 here?
A: Its Potency is inconclusive [inhibitor, partial curve, poor fit].

Q: With CCCCCc1c(-c2ccc(Br)cc2)ncn1CCc1ccccc1OC as the compound, how does the Potency read?
A: The Potency was inconclusive [inhibitor, partial curve, poor fit].

Q: CCOC(=O)N1CCC(NC(=O)Cn2cc3c(n2)CCCC3)CC1 was tested. Which “activity change, negative = inhibition” value did it give?
A: The value was inactive: 9.59%.

Q: How did the Potency turn out when O=C1CN(C(=O)COC(=O)c2cccc(OCc3ccccc3)c2)c2ccccc2N1 was run?
A: The Potency was inconclusive [inhibitor, single point].

Q: With Cc1ccc(CN(C)C(=O)c2cccc(S(=O)(=O)N3CCc4ccccc43)c2)cc1 as the compound, how does the Potency read?
A: The Potency was inconclusive [inhibitor, partial curve, poor fit].

Q: Which Potency does the source give for CCCCc1ccc(NC2=NCC(=O)N2CCc2ccccc2)cc1 here?
A: Its Potency is inconclusive [inhibitor, partial curve, poor fit].

Q: With O=C(NC12CC3CC(CC(C3)C1)C2)c1cc(F)c(F)c(F)c1F as the compound, how does the Potency read?
A: Its Potency is inconclusive [inhibitor, single point].

Q: For COc1ccc(NC(=O)Cn2cc(S(=O)(=O)N3CCC(C)CC3)c3ccccc3c2=O)cc1Cl, which Potency is on record?
A: The Potency was inconclusive [inhibitor, full curve, poor fit].

Q: Which “activity change, negative = inhibition” value does the source give for Cc1ccc(NC(=O)CN2C(=O)c3cccnc3Sc3ccccc32)cc1C here?
A: Its value is inactive: 4.29%.

Q: With CCN1C(=O)[C@H]2[C@@H](c3ccc(-c4ccc5c(c4)OCO5)c(OC)c3)N[C@@](Cc3ccccc3)(C(=O)OC)[C@H]2C1=O as the compound, how does the Potency read?
A: The Potency was inconclusive [inhibitor, partial curve, poor fit].

Q: How did the “activity change, negative = inhibition” value turn out when C/C(C/C(C)=C1/SC(=S)NC1=O)=C1\SC(=S)NC1=O was run?
A: The value was inactive: 1.31%.

Q: CCCSc1ncc(Cl)c(C(=O)Nc2ccc(S(=O)(=O)N3CCCC(C)C3)cc2)n1 (stereo unspecified) was tested. Which Potency did it give?
A: Its Potency is inconclusive [inhibitor, partial curve, poor fit].

Q: For COc1cccc(NC(=O)NCCCN2CCN(c3ccc(F)cc3)CC2)c1, which Potency is on record?
A: Its Potency is inconclusive [inhibitor, single point].

Q: Which Potency does the source give for COc1ccc(C(O)(c2ccccc2OC)C(CN2CCOCC2)c2ccccc2)cc1 (stereo unspecified) here?
A: The Potency was active: 10 µM.

Q: With COC(=O)[C@]1(Cc2ccccc2)N[C@H](CN(C)C(=O)NC(C)C)[C@@H]2C(=O)N(Cc3ccccc3)C(=O)[C@@H]21 as the compound, how does the “activity change, negative = inhibition” value read?
A: Its value is inactive: -4.61%.

Q: How did the Potency turn out when O=C(N[C@@H](Cc1ccccc1)C(=O)OCc1ccccc1)c1nc[nH]c1C(=O)NC(c1ccccc1)c1ccccc1 was run?
A: The Potency was inconclusive [inhibitor, partial curve, poor fit].

Q: For C=Cc1ncc(OC)c2c1[nH]c1ccccc12, which Potency is on record?
A: The Potency was inconclusive [inhibitor, partial curve, poor fit].

Q: For CC(OC(=O)c1ccc(C(C)(C)C)cc1)C(=O)NC1CCCCC1C (stereo unspecified), which Potency is on record?
A: The Potency was inconclusive [inhibitor, partial curve, poor fit].

Q: Which Potency does the source give for Cc1c(C(=O)N(Cc2ccc(N(C)C)cc2)CC2CCCO2)oc2ccccc12 (stereo unspecified) here?
A: The Potency was active: 10 µM.

Q: CC[C@@H]1CC=C[C@H]2[C@H]1C(=O)N(Cc1ccccc1)[C@H]2c1ccc(OC)c(Cl)c1 was tested. Which Potency did it give?
A: Its Potency is inconclusive [inhibitor, partial curve, poor fit].

Q: How did the “activity change, negative = inhibition” value turn out when C=CCn1c(SCC(=O)N2CCN(C(=O)c3ccco3)CC2)nc2sc(CC)cc2c1=O was run?
A: Its value is inactive: 9.37%.

Q: For COc1ccc(Cl)cc1-c1cc(C(=O)NCc2cccc(Cl)c2)[nH]n1, which Potency is on record?
A: The Potency was active: 3.16 µM.

Q: Cc1cccc(N2CCN(C(=O)c3ccc4nc(N5CCC(C)CC5)sc4c3)CC2)c1C was tested. Which Potency did it give?
A: Its Potency is inconclusive [inhibitor, partial curve, poor fit].

Q: With CN1OC[C@@H]2CN(S(=O)(=O)c3cccc(C(F)(F)F)c3)[C@H](c3ccc(-c4cccnc4)cc3)C[C@@H]21 as the compound, how does the Potency read?
A: Its Potency is inconclusive [inhibitor, partial curve, poor fit].

Q: How did the “activity change, negative = inhibition” value turn out when C=CCn1c(-c2ccc([N+](=O)[O-])cc2)n[nH]c1=S was run?
A: The value was inactive: 17.6%.

Q: With COc1cc(/C=N/N(c2ccccc2)c2ccccc2)ccc1O as the compound, how does the Potency read?
A: Its Potency is inconclusive [inhibitor, single point].

Q: How did the Potency turn out when O=C(c1cccc(F)c1)N1CCN(Cc2c[nH]c3ccccc23)CC1 was run?
A: Its Potency is inconclusive [inhibitor, partial curve, poor fit].

Q: With CC(C)N(C(=O)COC(=O)c1cccnc1Cl)c1ccccc1 as the compound, how does the Potency read?
A: Its Potency is inconclusive [inhibitor, single point].

Q: With CCCCNC(=O)c1onc(CSc2cc(C)cc(C)c2)c1C(=O)O as the compound, how does the Potency read?
A: The Potency was inconclusive [inhibitor, single point].

Q: CCN1CCN(S(=O)(=O)c2ccc(Cl)c(C(=O)N(C)Cc3cccc(Cl)c3Cl)c2)CC1 was tested. Which Potency did it give?
A: The Potency was inconclusive [inhibitor, single point].

Q: Which “activity change, negative = inhibition” value does the source give for Oc1ccc2ccccc2c1CNc1ccccn1 here?
A: Its value is inactive: -22%.

Q: Cc1nn(C2CCS(=O)(=O)C2)c(C)c1CN(C)C(=O)c1ccc(S(=O)(=O)N(C)C)cc1 (stereo unspecified) was tested. Which “activity change, negative = inhibition” value did it give?
A: The value was inactive: 4.98%.

Q: Cc1nc(-c2ccc(Cl)cc2)sc1C1(C)CC(c2ccc(Br)cc2)=NO1 (stereo unspecified) was tested. Which Potency did it give?
A: Its Potency is inconclusive [inhibitor, single point].

Q: CC(C)CC1C(=O)N(Cc2cn(Cc3ccco3)nn2)CCS(=O)(=O)N1Cc1ccc(-c2ccc(Cl)cc2)cc1 (stereo unspecified) was tested. Which Potency did it give?
A: Its Potency is inconclusive [inhibitor, single point].

Q: Which Potency does the source give for CN(C)CCCN(CCCN(C)C)C(=S)Nc1ccc(S(=O)(=O)N2CCOCC2)cc1 here?
A: Its Potency is inconclusive [inhibitor, single point].

Q: How did the “activity change, negative = inhibition” value turn out when O=C(/C=C/c1ccc(Cl)cc1Cl)OCC(=O)N1CCCC1 was run?
A: The value was inactive: 1.96%.

Q: COc1ccccc1OCC(=O)OC/C(O)=C(\C#N)c1nc2ccccc2[nH]1 was tested. Which Potency did it give?
A: The Potency was inconclusive [inhibitor, partial curve, poor fit].

Q: How did the Potency turn out when Cc1cc(N2CCN(Cc3nc(-c4ccc(F)cc4)oc3C)CC2)cc(C)n1 was run?
A: The Potency was active: 4.47 µM.

Q: Which Potency does the source give for O=C(COC(=O)C1(c2ccccc2F)CCCC1)NCc1ccc2c(c1)OCO2 here?
A: The Potency was inconclusive [inhibitor, partial curve].

Q: How did the Potency turn out when CS(=O)(=O)N(CC(=O)N1CCc2ccccc2C1)c1cccc(Br)c1 was run?
A: Its Potency is inconclusive [inhibitor, single point].

Q: Which “activity change, negative = inhibition” value does the source give for COc1cc(OC)c(/C=N/NC(=O)COc2cccc3cccnc23)c(OC)c1 here?
A: Its value is inactive: 0.613%.

Q: With CC1(C)OC(=CC=Nc2ccc(Cl)cc2)OC1(C)C as the compound, how does the Potency read?
A: Its Potency is inconclusive [inhibitor, partial curve].

Q: CNC(=S)N/N=C/C1=CCC2CC1C2(C)C (stereo unspecified) was tested. Which Potency did it give?
A: Its Potency is inconclusive [inhibitor, single point].

Q: COC(=O)c1sccc1NC(=O)c1cccc(F)c1 was tested. Which “activity change, negative = inhibition” value did it give?
A: The value was inactive: 40.4%.

Q: For CCOC(=O)Cc1cc(C(=O)Nc2ccc(Br)cc2)sc1-c1ccc(C)cc1, which Potency is on record?
A: The Potency was inconclusive [inhibitor, single point].

Q: Which Potency does the source give for CC1(c2cccc(Br)c2)NC(=O)N(CC(=O)Nc2ccc3c(c2)OCCO3)C1=O (stereo unspecified) here?
A: The Potency was inconclusive [inhibitor, single point].

Q: Which Potency does the source give for Cc1cccc(C)c1NC(=O)Cn1c(=O)n(Cc2ccc(C(=O)NCc3ccco3)cc2)c(=O)c2sccc21 here?
A: The Potency was inconclusive [inhibitor, single point].

Q: For O=C(NC(=S)N1CCCC1)c1ccc(Cl)cc1, which “activity change, negative = inhibition” value is on record?
A: Its value is inactive: 10%.

Q: S=C(NCCc1ccccc1)Nc1ccc(Nc2ccccc2)cc1 was tested. Which Potency did it give?
A: Its Potency is inconclusive [inhibitor, single point].

Q: How did the Potency turn out when COc1ccc(-c2noc(CCC(=O)NC3CCN(Cc4ccccc4)CC3)n2)cc1 was run?
A: The Potency was inconclusive [inhibitor, partial curve, poor fit].

Q: Which Potency does the source give for COc1ccc(C2=Nc3ccccc3NC(=O)C2N(C(=O)c2ccnc3ccccc23)c2ccccc2)cc1 (stereo unspecified) here?
A: The Potency was inconclusive [inhibitor, single point].

Q: CCc1ccc([C@@H]2CC=C(C(=O)O)[C@H](c3ccc(C)cc3)N2S(=O)(=O)c2ccc(C)cc2)cc1 was tested. Which Potency did it give?
A: The Potency was inconclusive [inhibitor, partial curve, poor fit].

Q: CCc1ccc(CNc2ncc(-c3cccc(OC)c3)n2C)cc1 was tested. Which Potency did it give?
A: The Potency was inconclusive [inhibitor, partial curve, poor fit].

Q: With COc1cc(C#Cc2c(-c3cncn3C)n(C)c3ccc(-c4ccc(OC)c(OC)c4)cc23)cc(OC)c1 as the compound, how does the “activity change, negative = inhibition” value read?
A: The value was inactive: 45%.
